# Screen size: about 110,000 compounds; about 230 (0.21%) showed an effect of 50% or more. Some of the results follow.
# Molecular target: DPAP1 (Plasmodium falciparum, UniProt Q8IIJ9)
# Test: primary screen, percent inhibition; read by cleavage of a fluorogenic dipeptide substrate; higher = more effect of the substance
# Parameters: species or system P. falciparum D10 trophozoite lysates; single well
# 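Also: 30 min substrate incubation versus DMSO and 10 µM JCP410 controls.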
# Chain of DPAP1 (Q8IIJ9 whole entry, looked up): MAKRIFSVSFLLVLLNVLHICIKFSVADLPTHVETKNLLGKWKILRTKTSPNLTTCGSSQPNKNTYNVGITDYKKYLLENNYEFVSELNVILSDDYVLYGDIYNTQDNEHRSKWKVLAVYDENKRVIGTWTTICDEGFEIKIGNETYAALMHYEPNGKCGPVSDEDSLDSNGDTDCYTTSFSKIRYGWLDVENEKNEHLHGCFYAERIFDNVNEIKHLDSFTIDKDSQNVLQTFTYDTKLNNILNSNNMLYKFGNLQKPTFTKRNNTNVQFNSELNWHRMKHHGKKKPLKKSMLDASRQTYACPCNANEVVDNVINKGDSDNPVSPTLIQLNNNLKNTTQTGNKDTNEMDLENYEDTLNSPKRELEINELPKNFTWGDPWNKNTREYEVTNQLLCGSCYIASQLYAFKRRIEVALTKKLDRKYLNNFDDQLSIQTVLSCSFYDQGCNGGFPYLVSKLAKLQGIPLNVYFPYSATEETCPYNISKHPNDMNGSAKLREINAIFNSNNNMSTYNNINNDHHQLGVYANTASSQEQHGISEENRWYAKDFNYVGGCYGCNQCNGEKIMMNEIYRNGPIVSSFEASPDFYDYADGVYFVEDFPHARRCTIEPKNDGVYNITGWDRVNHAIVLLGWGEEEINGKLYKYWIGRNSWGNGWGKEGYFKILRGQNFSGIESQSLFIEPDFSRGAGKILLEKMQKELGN
row,Compound,% Inhibition @ 10 uM [%]
1,NC(=O)CS(=O)(=O)c1nc2ccccc2n1CC(=O)N1CCOCC1,-2.19
2,Cc1ccc(OCCCCCN2CCNCC2)c(Cl)c1,-0.473
3,CN(C)CC(=O)N1c2ccccc2CCc2ccc(NC(=O)c3ccc(N)cc3)cc21,-2.47
4,O=C(O)CCC(C(=O)O)N1C(=O)c2c(Cl)c(Cl)c(Cl)c(Cl)c2C1=O (centres unmarked),3.27
5,Nc1ncnc2[nH]c(CO)nc12,-10.3
6,O=C(O)C1CCN(S(=O)(=O)c2cccc3nsnc23)CC1,-3.93
7,Cc1ccc(-c2nc3ccccc3c(=O)n2CCCn2ccnc2)cc1,0.751
8,COc1ccc(N(CC(=O)N2CCCCC2)S(=O)(=O)c2ccc(C)cc2)cc1OC,4.49
9,CCn1c(=O)c2sccc2n2c(CCCC(=O)NCc3ccccn3)nnc12,-6.87
10,Clc1cccc(Cn2ncc3ccccc32)c1,3.27
11,COc1ccc(OC)c(N(CC(=O)Nc2ccc(F)cc2)S(C)(=O)=O)c1,-6.83
12,N#Cc1cc2c(nc1S(=O)Cc1ccc(Cl)cc1)CCCC2 (centres unmarked),-5.63
13,COc1ccc(Br)cc1CN1CCN(C2CCN(Cc3ccccc3)CC2)CC1,-1.6
14,O=C(Nc1ccc2oc(-c3ccc(F)cc3)nc2c1)c1ccc(Br)o1,11.4
15,CCC(=O)Nc1sc2c(c1C(=O)Nc1cccc3ccccc13)CCC2,-0.865
16,OC1=C2C(=Nc3nc(O)nc(O)c3C2c2ccc(-c3cccc(C(F)(F)F)c3)o2)CCC1 (centres unmarked),-0.0678
17,CC1=C(C(=O)N2CCCCC2)C(c2ccc(C(F)(F)F)cc2)C2=C(O)CCCC2=N1 (centres unmarked),1.86
18,Cc1cccc(CSc2nc3cccnc3n2CC(=O)NCCc2ccccc2)c1,7.01
19,c1ccc2[nH]c(Cc3nc4ccccc4[nH]3)nc2c1,-8.12
20,Cc1cc(C)nc(SCc2nnc(SCC(=O)NCc3ccccc3)o2)n1,2.95
21,CC(C)C(=O)N1c2ccccc2N=C2CC(C)(C)CC(O)=C2C1c1ccc(Cl)cc1 (centres unmarked),-3.44
22,COc1ccc2[nH]cc(CCN3C(=O)CCC3=O)c2c1,-1.29
23,COc1ccc(CNC(=O)Cn2nc(C)c3c(C)n(-c4ccc(C)cc4)nc3c2=O)cc1OC,-5.15
24,Cc1ccc(C(=O)N/C(=C\c2ccco2)C(=O)N2CCSCC2)cc1C,-2.78
25,COC(=O)c1cnc2ccc(S(=O)(=O)N3CCCC3)cc2c1O,2.5
26,Cc1cccc(C#CCN2CCCCC2)c1,-6.87

row,Compound,% Inhibition @ 10 uM [%]
1,CCC1=NN2C(=N)/C(=C/c3ccc(OCCOc4ccccc4)c(OC)c3)C(=O)N=C2S1,7.73
2,CC(=O)C1=C(C)OC(N)=C(C#N)C1c1cccc(OCc2ccccc2)c1 (centres unmarked),-0.25
3,COc1ccccc1NC(=O)c1cc(OC)c(C(=O)c2ccccc2)cc1OC,3.69
4,CCOC(=O)c1c(N)n(-c2cc(C)ccc2C)c2nc3ccccc3nc12,-1.6
5,N#Cc1cn(CC(=O)N2CCc3ccccc3C2)c2ccccc12,0.777
6,CCOC(=O)N1CCN(C(=O)COCc2cc(-c3ccc4c(c3)OCO4)on2)CC1,-1.04
7,COC(OC)C(CCc1ccccc1)NC(=O)C(CC(C)C)NC(=O)OCc1ccccc1 (centres unmarked),-5.64
8,CC(=O)Nc1ccc(C(=O)N(Cc2ccccc2)C(C(=O)Nc2ccc(C)cc2)c2ccccn2)cc1 (centres unmarked),-5.14
9,Cc1cc(-c2ccc([N+](=O)[O-])cc2)c(C#N)c(N)n1,-4.04
10,C=C(C)Cn1c(CNC(=O)c2ccc(Cl)cc2)nc2ccccc21,-2.59
11,COc1ccc(S(=O)(=O)N2CCCN(CC(=O)C(C)(C)C)CC2)cc1,-0.631
12,Clc1ccccc1-c1nn[nH]n1,3
13,O=C(CSc1nnc(-c2ccc(Cl)s2)o1)N1CCCCC1,-3.41
14,COc1cccc(/C=C2\CCC3=C2OC(N)=C(C#N)C3c2cccc(OC)c2)c1 (centres unmarked),5.59
15,O=C(NCc1ccccc1Cl)c1cc(O)nc2ccc(S(=O)(=O)N3CCOCC3)cc12,2.65
16,CCc1onc2cc3c(cc12)OCCO3,2.55
17,N#CC1=C(N)Oc2c(c(O)nc3ccccc23)C1c1cccc2ccccc12 (centres unmarked),1.26
18,COc1ccc(Cn2c(CCC(=O)NCc3ccc4c(c3)OCO4)nc3cccnc32)cc1,-1.3
19,Cn1c2ccccc2c2cnn(CC(=O)NCCCN3CCN(Cc4ccccc4)CC3)c(=O)c21,2.99
20,COc1cccc(CNS(=O)(=O)c2c(C)nc3sccn3c2=O)c1,-3.9
21,Cc1ccc(S(=O)(=O)N2CC=C(C(=O)NC3CCC(C)CC3)CC2)cc1 (centres unmarked),-2.14
22,Nc1ccc2nc(SCC(=O)N3CCCCC3)sc2c1,-0.25
23,CCCS(=O)(=O)NCCc1cc2ccc(C)c(C)c2nc1O,0.205
24,CC1(C)CC2=NCC(=O)NC2=C(O)C1,59.8
25,O=C(C1CCC(CNS(=O)(=O)c2cccs2)CC1)N1CCCCC1 (centres unmarked),-3.21
26,Cc1ccc(S(=O)(=O)c2nnn3c2nc(N(C)Cc2ccccc2)c2ccccc23)cc1,17

row,Compound,% Inhibition @ 10 uM [%]
1,O=C(Nc1ccccc1C(F)(F)F)c1cc2ccccc2oc1=O,0.605
2,Cc1ccc(CNC(=O)Nc2nnc(N(CC(C)C)CC(C)C)s2)cc1,-2.85
3,Cc1ccc(OCC(=O)Nc2ccc(S(=O)(=O)N3CCC(C)CC3)cc2)cc1,-2.28
4,COc1ccccc1NC(=S)NC(=O)c1ccccc1,2.6
5,O=C(CCn1nc(-c2ccc(Cl)cc2)ccc1=O)NCCCN1CCCCC1,-1.79
6,O=S(=O)(NCc1ccccc1Cl)c1ccc2[nH]c(-c3ccccc3)nc2c1,4.07
7,Clc1ccccc1CNc1cc(-c2ccccc2)nc2nncn12,-0.808
8,CCCCC(=O)Nc1c2c(nn1-c1ccc(C)cc1)CS(=O)(=O)C2,-2.54
9,CCOCCCNc1nc2ccccc2n2nnnc12,-0.522
10,CCOC(=O)C1=C(C)NC(=O)N(C(=O)Cc2ccccc2)C1c1cccc(OC2CCCC2)c1 (centres unmarked),-1.24
11,CCOc1ccc(NC(=O)c2ccccc2NC(C)=O)cc1,2.58
12,O=C1C2C3CCCN3C3(C(=O)c4ccccc4C3=O)C2C(=O)N1c1ccc(F)c(Cl)c1 (centres unmarked),-0.992
13,Clc1cccc(Cl)c1-c1nnc2ccc3ccccc3n12,-0.267
14,Cc1cccc(CCNS(=O)(=O)c2ccc(S(=O)(=O)N3CCOCC3)cc2)c1,8.37
15,CCOc1ccc(C2CC(=O)N3CN(Cc4ccco4)CSC3=C2C#N)cc1 (centres unmarked),43.4
16,Cc1ccn2c(-c3csc(Nc4ccc(N)cc4)n3)c(C)nc2c1,2.65
17,Cc1ccn2cc(-c3ccc(F)cc3)cc2c1,-0.864
18,CCOc1cc(CN2CCN(C)CC2)ccc1O,2.33
19,Cc1cccc(CCNc2nc3ccccc3c3nc(-c4cccnc4)nn23)c1,-2.42
20,CC(=O)Nc1cc(Cl)c2oc(-c3ccc(Cl)cc3Cl)nc2c1,-1.5
21,Cc1ccc(Cn2ncc3c(NCCCN4CCOCC4)ncnc32)cc1,-1.89
22,O=C(CSc1ccc(Br)cc1)Nc1ccccc1N1CCOCC1,1.35
23,Cc1nc2nc(-c3ccc(Cl)cc3Cl)nn2c(C)c1CCC(=O)O,-1.03
24,Cc1cc(Br)ccc1NC(=O)C1CC(=O)N(c2ccc(OC(C)C)cc2)C1 (centres unmarked),-4.14
25,CCCCSc1cc(C)nc2ncnn12,0.906
26,COc1cc(OC)cc(-c2nc(-c3ccccc3)no2)c1,-3.77

row,Compound,% Inhibition @ 10 uM [%]
1,CCO/C(O)=C1\C(CC)=NC2=C(C(=O)CCC2)C1c1ccccc1OCC (centres unmarked),-2.87
2,CC1CCN(C(=O)CSc2c3c(nc4ccccc24)CCC3)CC1,-11
3,c1coc(C2Nc3c(ccc4ccccc34)C3OCCC23)c1 (centres unmarked),-5.96
4,COc1ccc(-c2nc3ncnc(O)c3nc2-c2ccc(OC)cc2)cc1,-1.29
5,O=C(NCCc1ccccc1)C1=CCN(S(=O)(=O)c2ccccc2)CC1,5.09
6,O=C1CCCC2=C1C(c1ccc(F)cc1)C1=C(CCCC1=O)O2,1.64
7,Cc1ccc(-c2nonc2NC(=O)CC(C)C)cc1,-6.56
8,C=CCNC(=O)c1cc(-c2ccc(Cl)c(Cl)c2)on1,-8.56
9,COc1cccc2c1cc1c(=O)n(CC(=O)NC(C)c3ccccc3)nc(C)n12 (centres unmarked),4.84
10,COc1ccc(CN(Cc2ccco2)C(=O)COc2ccccc2C)cc1,-2.84
11,CCOC(=O)c1c(/N=C/C2C(=O)NC(=O)NC2=O)sc2c1CCC2,-5.01
12,COC(=O)c1c(C)cc(O)c(C)c1O,-0.0404
13,O=C(CNS(=O)(=O)c1ccc(Br)cc1)N1CCN(c2ccc(F)cc2)CC1,10.8
14,Oc1ccc(NCc2cccc(Br)c2)cc1,3.05
15,COc1ccc(-c2nc3cc(N)ccc3o2)cc1Cl,-5.82
16,O=C(CN1CCc2ccccc2C1)c1ccc2cc[nH]c2c1,0.66
17,O=C(NC(=C(Cl)Cl)S(=O)(=O)c1ccc(Cl)cc1)c1ccc(Cl)cc1,-1.84
18,O=[N+]([O-])c1cccc(C2=NOc3cc(Br)ccc3N2)c1,-4.66
19,Clc1ccc(N2CCN(Cc3ccccc3)CC2)cc1,-3.65
20,Cc1ccc(C2CCN(C(=S)NCC3CCCO3)C2)cc1 (centres unmarked),-0.971
21,CC1CCN(c2ccc3nnc(CCC(=O)NCCC4=CCCCC4)n3n2)CC1,0.257
22,O=C1N=C(c2ccccc2)S/C1=C\c1ccccc1,3.96
23,OCCCc1cn(-c2ccccc2)c2ccccc12,4.93

# Reference: paper PMC6919601, “Identification of Plasmodium dipeptidyl aminopeptidase allosteric inhibitors by high throughput screening” (PLoS ONE, 2019)
